Our source for the self-cleavage values is the RNAGym collection of RNA variant scans (doi:10.1093/nar/gkz1192).

Read counts are not given, so values of variants with three or more changes are uncertain.

B1: CPEB3 Ribozyme (parent)
chain: UAACAGGGGGCCACAGCAGAAGCGUUCACGUCGCAGCCCCUGUCAGAUUCUGGUGAAUCUGCGAAUUCUGCUGUAUAUCUC

In the data set the parent is B1. The data set can be described thus: self-cleavage, relative activity (ratio to wild type); higher = more cleavage; in vitro, sequencing. The procedure, abridged: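 For each CPEB3 ribozyme variant, relative activity is its cleaved/total read fraction divided by the unmutated ribozyme's. Barcoded error-prone PCR libraries were transcribed by T7 RNA polymerase (5 hours, 37°C) and held in DNase I for 15 min before an EDTA stop, with cleavage occurring throughout. Template-switching reverse transcription and Illumina sequencing were used to read the RNAs. A 5-read minimum applied, and results are the mean of three batches.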
Regarding A15G A18U U66C, the self-cleavage was found to be 0.16.

As for A15C U41A A45G A64G, the self-cleavage amounted to 0.06.

In the case of A15G A18G A20U G24C C38U, the self-cleavage was determined as 0.12.

As for A15C U43A A45U, the self-cleavage was 0.73.

Consider A15G A18C U41C A47U U49C U60C G63U, for which the self-cleavage amounted to 0.18.

On to A15G A18U A35G C37A A56G G61A U69C, for which the self-cleavage stood at 0.05.

With A15G A18U A20G U41C U72A, the self-cleavage was 0.09.

Turning to A15C U41C U49A, the self-cleavage was found to be 0.38.

A15G A18G G33C: the self-cleavage was determined as 0.13.

On to A15G A18G C32A C38A G70C U80C, for which the self-cleavage was found to be 0.07.

Turning to A15G A18C U51C A65C, the self-cleavage was found to be 0.06.

Regarding A15G A18G U43A A45G A64U U74C U80C, the self-cleavage came to 0.13.

On to A15G A18G A35U U41C U66C U80C, for which the self-cleavage stood at 0.21.

With A15G A18G A75U U78A, the self-cleavage is 0.2.

Take A15C G19A A20U A47G A57U U72C: the self-cleavage was found to be 0.01.

As to A15G A18G U31A, the self-cleavage was determined as 0.45.

Turning to A15C U31C A35G U60C, the self-cleavage turned out to be 0.8.

As to A15G A18G A21G C40U U49G, the self-cleavage is 0.06.

Regarding A15G A18U U26C C62U G73A, the self-cleavage amounted to 0.42.

As to A15G A18U C40U A57U U66A, the self-cleavage stood at 0.19.

On to A15G A20C U74G, for which the self-cleavage is 0.38.

Regarding A15G A18G A21G A57G U69A U72C, the self-cleavage was found to be 0.27.

For the variant A15C U67C U72C, the self-cleavage is 0.1.

Take A15G A18G U26A U74G: the self-cleavage amounted to 0.37.

For A15G A20G A28G, the self-cleavage came out at 0.5.

Regarding A15C U26C U41A A47U G70U U78C, the self-cleavage turned out to be 0.11.

For A15G A20G C62U A77G U78A, the self-cleavage turned out to be 0.16.

With A15G A18U A56G, the self-cleavage was 0.36.

With A15G A18G A20G C32A U43C, the self-cleavage was determined as 0.04.

On to A15C U48A U60A A77G, for which the self-cleavage worked out at 0.48.

A15C U26C A57G U78C: the self-cleavage was found to be 0.35.

For A15C U25G U67C, the self-cleavage came to 0.08.

Regarding A15G A18G U72C, the self-cleavage is 0.77.

Take A15C U26C U43C U48A: the self-cleavage was found to be 0.07.

Take A15G A20G A21G U60A: the self-cleavage is 0.42.

On to A15C C32G U41A G55A G61A A65G U72C, for which the self-cleavage was found to be 0.11.

Consider A15C U51A U80C, for which the self-cleavage came out at 1.09.

As to A15G A18G C27G U48A U58A U78C, the self-cleavage worked out at 0.22.

As for A15G A18G U49A, the self-cleavage was 0.21.

Consider A15G A18U U25C A35U U41C A47G A75G, for which the self-cleavage was 0.06.

As to A15G A18G U41C, the self-cleavage came out at 0.4.

With A15C U51A A56G, the self-cleavage is 0.35.

Consider A15G A20G A45G U49C A57G U80A, for which the self-cleavage was determined as 0.07.

Regarding A15G A18G A20U C38U C68A, the self-cleavage is 0.11.

On to A15C U31A U54C, for which the self-cleavage was found to be 0.53.

As to A15G A18U C59U U78C, the self-cleavage worked out at 0.48.

For A15G A18U C38U, the self-cleavage turned out to be 0.41.

As to A15C G16A C17U, the self-cleavage is 0.12.

A15G A18U U49C U78C: the self-cleavage turned out to be 0.06.

Consider A15G A18U U80C, for which the self-cleavage stood at 0.23.

On to A15G A18U G33A U49A U58C U67C U74A, for which the self-cleavage turned out to be 0.03.

A15G A20G C39U U48A U51C: the self-cleavage is 0.06.

As for A15G A18G A64U U78A, the self-cleavage came out at 0.25.

On to A15G A18U U26C U54C U66C A75G, for which the self-cleavage worked out at 0.08.

In the case of A15C U43C U67A, the self-cleavage was 0.19.

A15C U31G U43G U51A: the self-cleavage was determined as 0.24.

A15G A18G C27G A28U G52U: the self-cleavage was 0.29.

A15G A18U U26C: the self-cleavage came out at 0.2.

In the case of A15C C34G C50A A65C U69C, the self-cleavage was 0.12.

Take A15G A20G A35U U41C: the self-cleavage was 0.39.

As for A15G A18G C39G, the self-cleavage came out at 0.39.

As to A15G A18G G33A U78A, the self-cleavage is 0.31.

On to A15C C37U U41C U43C A45U U48C U72A, for which the self-cleavage stood at 0.07.

For A15C C38U U58C A77U, the self-cleavage was 0.32.

In the case of A15G A18G U25C U31C A64U, the self-cleavage turned out to be 0.35.

A15G A18G A28G G61A U67C: the self-cleavage came to 0.2.

A15G A18G A47G U72A U78A: the self-cleavage was determined as 0.16.

Take A15G A20G C40U U48C A64G C71U: the self-cleavage amounted to 0.05.

A15C U26A A56C U80A: the self-cleavage was 0.25.

Turning to A15G A18G U31C U80C, the self-cleavage turned out to be 0.38.

Take A15G A18U U49A A64U: the self-cleavage is 0.1.

As for A15G A18U A20G U54C, the self-cleavage stood at 0.3.

For A15G A18C G19A U41A A64C, the self-cleavage amounted to 0.17.

Turning to A15G A18G U48C U69C U76G, the self-cleavage was 0.16.

With A15G A20G C23A C40U U41A, the self-cleavage came out at 0.38.

For the variant A15G A18G U48C U49C A64G, the self-cleavage worked out at 0.07.

With A15C G24C U26C G46U A65G U66C, the self-cleavage is 0.05.

A15G A18G U41C U51C A56G U69A: the self-cleavage came to 0.12.

On to A15C U26C U41A A64U C79U, for which the self-cleavage is 0.08.

For A15C U31C U43A G63A A64G U69C, the self-cleavage worked out at 0.09.

Turning to A15G A18G U25C G33C C50A U72C, the self-cleavage was 0.04.

In the case of A15G A20G A21G U54C U78A, the self-cleavage came to 0.36.

In the case of A15G A18G C38U, the self-cleavage was determined as 0.1.
